Some of the results follow.
T1: UNK ZnF1-3 (human, UniProt Q9C0B0 31-174)
T1 sequence: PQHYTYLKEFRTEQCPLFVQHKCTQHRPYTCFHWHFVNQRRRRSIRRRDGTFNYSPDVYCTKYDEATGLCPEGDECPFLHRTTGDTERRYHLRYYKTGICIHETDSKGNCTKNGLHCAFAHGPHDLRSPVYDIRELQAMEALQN

B1: chr9:66815617:66815618:-_ENSMUSG00000032370_ENSMUST00000034929|mus_hu|motif|central (ssRNA)
RNA: GGGAGUUCUACAGUCCGACGAUCGUCAUGGAAUAUUUUCUGCAUAUAGUCCAAAUAUUUACAUCCUGAAGCUCUCUCGGCGGUGGCUGCCAGUAGGGUAUAGCCAAAAGUUGAAUACAAAAACUGACUACCAGGUUUGAAGAACAACAGAGGAUUGAGCAUCA
B2: 108188139_108188259_805_CDS_ENSMUSG00000005698_ENSMUST00000005841|mouse|control|control (ssRNA)
RNA: GGGAGUUCUACAGUCCGACGAUCUGGCUGAUAGUCUGGGUCUUUUUGCCAGCUAGAGUCUUCCUGAGGAGGAAGCUCGCCCUGCUCUAGUGUCUCCACUUCUCCAUUGGCCCCCACUUUCACCACCUGAAAUCCUUCAGGCAACAACAGAGGAUUGAGCAUCA
B3: chr12:120936209:120936210:+_ENSG00000088986_ENST00000242577|hu_hu|FALSE|FALSE (ssRNA)
RNA: GGGAGUUCUACAGUCCGACGAUCUGAGAGAAAACAACGUGGGCAGAAGUAUGGAAUAGAAAAUAAAUACAAAUGUAGGCUAUUCUGCUAAUUGUUUUAUAACCACGACAAACUAGUACAGAGAAUGCCCUGUACAAAACACAACAACAGAGGAUUGAGCAUCA
B4: chr3:179287964:179287965:+_ENSG00000136518_ENST00000429709|hu_hu|hu_hu_hu_mus_True|48_88 (ssRNA)
RNA: GGGAGUUCUACAGUCCGACGAUCCUUGAGUGGUGAGAUGGCCUCCAUAUUCUCCCUGGGCACGCGGAGGGCAUUGGUGUCUAUGUAGUAGGUGGGACCGCCCUGCUUGCCUUUGUCACCAUCAAUCUCCAUCAUUGUACUUCCCAACAGAGGAUUGAGCAUCA
B5: chr1:163112212:163112213:-_ENSG00000143248_ENST00000313961|hu_hu|hu_hu_hu_mus_False|38_98 (ssRNA)
RNA: GGGAGUUCUACAGUCCGACGAUCUUUUAUUAUCAGUAAGCAUGAGUUACAUACUAGGCAAAGUAUUGGAUACAAUAAUCAGGAAACAAACACUAUUUUUCUUGAAUUUAAAACUUUAUGAGCGAAGUGCUGGCACAGGACUUACAACAGAGGAUUGAGCAUCA
B6: chr16:46732117:46732118:+_ENSG00000091651_ENST00000219097|hu_hu|FALSE|FALSE (ssRNA)
RNA: GGGAGUUCUACAGUCCGACGAUCCAAGGGACUGCCAUUCACUUAAAGCAAAAUGGCUCCAAUUCCGUUUAUCUAUCUAUCUAUCUAUCUAUCUAUCUAUCCAUCUAUCUAUCUAUCUAUCUAUAAGUCUCGCUCUGUCACCCACAACAGAGGAUUGAGCAUCA
B7: chr19:40827925:40827926:-_ENSG00000160392_ENST00000392035|hu_hu|FALSE|FALSE (ssRNA)
RNA: GGGAGUUCUACAGUCCGACGAUCGCUGCUCCCCCGGGGCCCCACCAGAGUCCUCUUAAUGGUGACCUUGACCUCGGCUGAGGACUUACUCUUGGUGCUGGUGACCUGGCUGUCCUGGGCCUCGGGCACAAGGGCAGCUGCGCCCAACAGAGGAUUGAGCAUCA
B8: 39180548_39183902_2538_CDS_ENSMUSG00000037475_ENSMUST00000047037|mouse|control|control (ssRNA)
RNA: GGGAGUUCUACAGUCCGACGAUCCACCAUCUCACAUGAUGUAAUGUAUUUAUGGACUUUAUGUUGCUGUUUACUUCCCUUUUCUGAUUUUUUAAGUUCAUCGUAUUUUGACGAAAUAUGGUGUGCAUACAUUGGCCUAGACAGCAACAGAGGAUUGAGCAUCA
B9: chr3:33703679:33703680:+_ENSMUSG00000027677_ENSMUST00000099153|mus_mus|FALSE|FALSE (ssRNA)
RNA: GGGAGUUCUACAGUCCGACGAUCUUCUAACUGCCCUCCCCUUUCUACAAGUGUCUGGCAGAGAUAUUUCCUUGCAUUCCUAUGAGUUGGGCAGUUUUCUAAUGCGAGCUCAAAAUCUUCUAUUGCUUUGUUUAGACUUCCUUUCAACAGAGGAUUGAGCAUCA
B10: chr2:48034816:48034817:-_ENSG00000138081_ENST00000403359|hu_hu|FALSE|FALSE (ssRNA)
RNA: GGGAGUUCUACAGUCCGACGAUCAUAUUUCUCAAUCUGAAUACAUGUUAAAAAAAAAAAAUCAAAAGGAACGCAGAAGUGCUAGCUCACAUUUUUACCAUAUUACAAAAGCAAUUGGUACCCAUGUCCAUAAAGGCAGCAACACAACAGAGGAUUGAGCAUCA
B11: chr4:140556289:140556290:+_ENSMUSG00000036622_ENSMUST00000037055|mus_hu|FALSE|FALSE (ssRNA)
RNA: GGGAGUUCUACAGUCCGACGAUCGAUGGAGCUCACCAGGCCCCCUUUUGCCGUGCAGAACCCUGUGCGGGUCACCACUGCCAGGACGUGCGGUCCCACAUAGGCCCGGGCCUGCAAGAUGAGGGUCCCGCAGAAGAGUGUGUGCAACAGAGGAUUGAGCAUCA
B12: chr15:65869917:65869918:+_ENSG00000074696_ENST00000261875|hu_hu|motif|central (ssRNA)
RNA: GGGAGUUCUACAGUCCGACGAUCGCCAUUUUUUAUGUUUGUGCACAGCCUUACAGUUUGGAGGUGUGUUUGGCCGGCUCGGAUAUUUCUAGUUUGUCAAAGGCUGUACACUGUUACUGCCAGUUUGACCUACAUACUGUGUUCCAACAGAGGAUUGAGCAUCA
B13: chr16:42174308:42174309:+_ENSMUSG00000061080_ENSMUST00000099761|mus_mus|motif|central (ssRNA)
RNA: GGGAGUUCUACAGUCCGACGAUCGUAUCUGUGUGACGCAUUUUUGUGUGUUUUUGUAAUUAUUUUUAAAUUUUUAUUCGGUUAACAUUUGCUGAGAAGGCAGAACAGGGACGCUGCCAGCAGCCACAGUGGUACGGCCAGACUCAACAGAGGAUUGAGCAUCA
B14: chr2:179515052:179515053:+_ENSMUSG00000000305_ENSMUST00000000314|mus_hu|mus_mus_mus_hu_False|28_28 (ssRNA)
RNA: GGGAGUUCUACAGUCCGACGAUCGCUGUCCCAUGCAGUCACCGUGAACGCCACCUGCUCGGAGGGGACCUGCAGCUCCCGGGUGGCGAAGACUGUCCCAUCUGCCCCGACUUUGAAGUCCAUGCUGUUGGUCUCAUAUUGUGUCAACAGAGGAUUGAGCAUCA
B15: chr8:74858975:74858976:-_ENSG00000154582_ENST00000284811|hu_mus|hu_hu_hu_mus_True|1_88 (ssRNA)
RNA: GGGAGUUCUACAGUCCGACGAUCGACCUUGUAGGUAAAAUACAUGCAUACUUUCGAUAGCACAUGUGAGGGGAUCUCUCUAAAAUUGACCUCGUUGGUUUCAUUCUCAGCAAACUGACCUGGACCACUCAACAUAGCUUUUAUCAACAGAGGAUUGAGCAUCA
B16: 110765429_110765549_871_CDS_ENSG00000174437_ENST00000539276|human|control|control (ssRNA)
RNA: GGGAGUUCUACAGUCCGACGAUCUAUGAUCCAGACUGCAAUGCAAAUAAGGGAGAUGACUUUGGAAAGCUGUUCCCCAAAUUCAUCUAGUUUUUGCUGAAGGGGUGUUCUCUCCUGUUCUGUUGCCACCAUUUCAUCCCGGAUCAACAGAGGAUUGAGCAUCA
B17: chr1:46159212:46159213:+_ENSG00000159596_ENST00000372025|hu_mus|hu_hu_hu_mus_True|58_98 (ssRNA)
RNA: GGGAGUUCUACAGUCCGACGAUCUCUGAUCCCUCCCAAGAAAGAUAGGAAACCGGCUCCAUAAGCCAUCUGAGUGAAAGCUAAUAUGGGGAUAUAAGACUUUGUUAUUACCAUGAGAAGUGGGGGAGCAGUAAAGGGGAUUAACAACAGAGGAUUGAGCAUCA
B18: chr5:113341905:113341906:-_ENSMUSG00000042249_ENSMUST00000065167|mus_mus|FALSE|FALSE (ssRNA)
RNA: GGGAGUUCUACAGUCCGACGAUCAUGGGAACUCUCAAACAGCCAUGUAUCAUAAACCCAUCUGGCUCCUCCUCCCACCCUAUGGAUCCAGGACACACCCUAGCCACAUGCCAGGGUGGAAAGAUGGCCUUUGAGAUGGCGCUACAACAGAGGAUUGAGCAUCA
B19: chr4:17845017:17845018:+_ENSG00000109805_ENST00000514176|hu_mus|hu_hu_hu_mus_False|38_58 (ssRNA)
RNA: GGGAGUUCUACAGUCCGACGAUCGCUCUCUUAACUUGUAUCUUCAUUAAGGAACUCUGCAAGGUUAAGUUUACUUUUUCUAGUGCUAGCUGUUUUGCUCGUCUUGGGUAAUCUCAUCUUCAUUUCUGAUGGUGGUUCAUGAUCCAACAGAGGAUUGAGCAUCA
B20: 53432583_53432801_1820_CDS_ENSG00000072501_ENST00000322213|human|control|control (ssRNA)
RNA: GGGAGUUCUACAGUCCGACGAUCUUUCUCAUCUGUAGGCUUCACCUCCAGGUAGUCAAGAGGCAAGAAGGUCUCAGGCUCCCCACGCUGCUCCUUGAUAUACUGAAUACAGUCCCGGCCUGUCUUCUCCGAGUCCACAAUAAUCAACAGAGGAUUGAGCAUCA
B21: chr11:87793471:87793472:-_ENSMUSG00000020483_ENSMUST00000020775|mus_mus|mus_mus_mus_hu_False|18_28 (ssRNA)
RNA: GGGAGUUCUACAGUCCGACGAUCUGGACUUGAAAAUAAAAGAAUAAGCUGGAUCCCCCACCCCCCCACAUUGUCAACCCUACACGAGAGUUUUGAAGGCGACUCAUGAAUCAGCAGCUCAAUUGGCGCAAUGACCACCCCACCCAACAGAGGAUUGAGCAUCA
B22: chr18:48447474:48447475:+_ENSG00000082212_ENST00000321341|hu_hu|FALSE|FALSE (ssRNA)
RNA: GGGAGUUCUACAGUCCGACGAUCCCAGAUUUUCUUUUGUGCCUCUUGUUCUGACAGGCCAUUUUCUACCAUAGACAUAACUAUAAGAUUUGCAAUUCCAAGAGCAGCCUCUCCUGCUCCAAGGAAUAAGAUUUUGUGUUCGGACAACAGAGGAUUGAGCAUCA

Molecular target: T1, UNK ZnF1-3
Assay: nsRBNS (natural sequence RNA bind-n-seq); RBNS binding buffer (assumed for nsRBNS): 25 mM Tris pH 7.5, 150 mM KCl, 3 mM MgCl2, 0.01% Triton X-100, 500 ug/ml BSA, 20 U/ml SUPERase-In, 4 C; UNK is unkempt and MSI1 is Musashi-1; names of the RNAs are library labels; protein concentration not given here; high values mean tight binding

Binder | binding signal [enrichment R]
B1 | 1.37
B2 | 0.702
B3 | 1.55
B4 | 0.661
B5 | 1.42
B6 | 0.983
B7 | 0.572
B8 | 0.595
B9 | 0.28
B10 | 1.91
B11 | 1.24
B12 | 0.37
B13 | 2.94
B14 | 0.719
B15 | 0.856
B16 | 0.676
B17 | 1.55
B18 | 0.229
B19 | 0.298
B20 | 1.1
B21 | 1.46
B22 | 0.636
